Key:
SARS (Toronto-2 Strain) = assay type: cell-based, SARS coronavirus (SARSCoV); conditions: conc. 1 μM; Vero 76 cells, Toronto-2 virus, 72 hours
Vero 76 cells = conditions: conc. 1 μM

| Compound | % CPE (INHIBITION) (SARS (Toronto-2 Strain)) | % CELL VIABILITY (Vero 76 cells) |
| --- | --- | --- |
| Oc1cc(O)c2c(c1)O[C@H](c1cc(O)c(O)c(O)c1)[C@@H](O)C2 [(+)-Gallocatechin] | 6.21% | 37.41% |
| O=C(O[C@@H]1Cc2c(O)cc(O)cc2O[C@H]1c1ccc(O)c(O)c1)c1cc(O)c(O)c(O)c1 [(−)-Catechin Gallate] | 100% | 100% |
| O=C(O[C@@H]1Cc2c(O)cc(O)cc2O[C@@H]1c1ccc(O)c(O)c1)c1cc(O)c(O)c(O)c1 [(−)-Epicatechin Gallate] | 100% | 100% |
| Oc1cc(O)c2c(c1)O[C@H](c1cc(O)c(O)c(O)c1)[C@H](O)C2 [(−)-Epigallocatechin] | 25.82% | 100% |
| Oc1cc(O)c2c(c1)O[C@@H](c1cc(O)c(O)c(O)c1)[C@H](O)C2 [(−)-Gallocatechin] | 0% | 100% |
| O=C(O[C@@H]1Cc2c(O)cc(O)cc2O[C@@H]1c1cc(O)c(=O)c2c(O)c(O)cc([C@H]3Oc4cc(O)cc(O)c4C[C@H]3OC(=O)c3cc(O)c(O)c(O)c3)c2c1)c1cc(O)c(O)c(O)c1 [Theaflavindigallate] |  | 100% |
| O=c1c(O)cc([C@H]2Oc3cc(O)cc(O)c3C[C@H]2O)cc2c([C@H]3Oc4cc(O)cc(O)c4C[C@H]3O)cc(O)c(O)c12 [free Theaflavin] | 53.27% | 100% |
| (−)-Catechin | 0% | 100% |
| (−)-Epigallocatechin Gallate | 100% | 100% |
| (−)-Gallocatechin Gallate | 100% | 100% |
| Theaflavindigallate-A | 15.03% | 100% |
| Theaflavindigallate-B | 6.21% | 100% |
